{"source": "PubChem BioAssay AID1569", "about": "(National Center for Advancing Translational Sciences (NCATS), 2009)", "note": "Inconclusive results, whose numbers are uncertain, are shown with a selection of clear calls. A potency beside an inconclusive call is a rough fit, not a confirmed value. The source made the active and inactive calls. The call rests on the fitted dose curve; in most records, active means well fitted inhibition curve with a large enough effect; inconclusive means small, poorly fitted or top-dose-only effect, or effect the other way, or another doubt; inactive means no such curve, though single readings can be large or run the other way. Potency means the concentration at half of the fitted maximal effect; tags describe the fitted curve by direction and shape.", "data": [{"assay": "Confirmation Concentration-Response Assay for lipid storage modulators; further: nearly all actives have a fitted effect of over 80% in size;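 on activity change, negative = inhibition: -100% = full block of lipid deposition by 20 µM Triacsin C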", "conditions": "Drosophila S3 cells, lipid droplet BODIPY/CellTracker ratio, 18-24 h; activity change, negative = inhibition: at 46.1 µM (top of the series)", "in_short": "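Cells at 5,000/well received compound as a titration plus oleic acid (added as 400 uM solution) and were incubated 18–24 h at 24 °C. BODIPY 493/503 lipid signal and CellTracker Red cell count were read by 488-nm laser-scanning cytometry. Activity was normalised to 20 uM Triacsin C.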", "values": [{"smiles": "Cc1ccc(C)c(NC(=O)CSc2nnc(-c3ccccc3C)o2)c1", "Potency": "inconclusive: 1120 nM [activator, partial curve]"}, {"smiles": "COc1cccc(-n2nnnc2SCC(=O)NCCc2ccc(OC)c(OC)c2)c1", "Potency": "inactive"}, {"smiles": "COc1ccccc1Nc1nnc(SCC(=O)Nc2nc(-c3ccc(F)cc3)cs2)s1", "Potency": "active: 705 nM"}, {"smiles": "CCCCCCCCCCCCCCCC[n+]1cccc2ccccc21", "Potency": "active: 1220 nM"}, {"smiles": "CCOc1ccc(NC(=O)COC(=O)c2cc([N+](=O)[O-])ccc2N2CCOCC2)cc1", "Potency": "inconclusive: 3150 nM [activator, full curve, poor fit]"}, {"smiles": "COc1ccc(S(=O)(=O)N2CCC(C(=O)NCCc3ccc4c(c3)OCO4)CC2)cc1", "activity change, negative = inhibition": "inconclusive: 103% [activator]"}, {"smiles": "O=C(O[C@H]1[C@H](Cc2ccccc2)NS(=O)(=O)[C@H]2C[C@@H]3C=C[C@]12O3)c1ccc([N+](=O)[O-])cc1", "Potency": "active: 28100 nM"}, {"smiles": "CCOC(=O)c1cc(NC(=O)N(C(C)C)C(C)C)c(C)nc1C", "Potency": "inconclusive: 560 nM [activator, full curve, poor fit]"}, {"smiles": "COCCCN1C(=O)c2ccc(C(=O)OCC(=O)NCc3ccccc3OC)cc2C1=O", "Potency": "inactive"}]}]}
